# Out of some 150,000 compounds screened, about 540 (0.36%) showed an effect of 50% or more. This is one part of the list.
# Test system: Plasmodium falciparum
# Test: Primary screen in NF54 nanoGlo assay, in single point, at 2uM, 72h; a lower Z score goes with more inhibition
# Type: functional, Erythrocyte
# Settings: timepoint 72 hour
Compound,% Inhibition [%],Z score
Cc1ccc2c(c1)N(S(C)(=O)=O)C[C@@H](C(=O)Nc1cccc(N(C)S(C)(=O)=O)c1)O2,-18,2.33
C#C[C@H](CNC(=O)OCC)N1CCOCC1,-11,1.8
CC(=O)N(Cc1nnsc1Cl)S(=O)(=O)c1ccc(Br)cc1,-2,0.29
CCN1CCC[C@](C)(c2nc(CCN3CCCC3=O)no2)C1,-11,1.46
C[C@]1(Cc2ccc3c(c2)OCO3)CCCN(C(=O)c2cnc(C3CC3)nc2)C1,-3,0.64
CCOC(=O)CCC(=O)NC1CCCC(OC(=O)Nc2ccc(F)cc2)C1 (stereo not given),-13,2.57
CC1CCC(N(CC2CCCO2)C(=O)NC2CC3CCC2O3)CC1 (stereo not given),29,-3.78
Cc1ccncc1-c1ccc(C(=O)N2CCCCCCC2)cc1,-21,4.22
CC(C)n1nccc1N1C(=O)[C@H](C)N(Cc2ccccc2)C1=O,-10,1.03
CN(C)S(=O)(=O)c1cc(NC2CCCC2)cc(C(=O)NCCCn2ccnc2)c1,22,-2.56
O=C(N1CCOCC1)N1Cc2ccccc2C1,-13,1.65
Cc1oc(-c2cccc(F)c2F)nc1CN1C[C@@H](C)NC[C@@H]1C,-9,1.47
O=C(NCCCN1CCOCC1)C1CC2CCC1C2 (stereo not given),-1,0.08
Cc1ccc(CNC(=O)c2cccnc2)n1C,-5,0.55
Cc1cc(C)nc(N(C)CCOc2ccccc2)n1,-7,0.7
Cc1nnc(-c2ccc3ccn(CC(=O)N4CCCc5ccccc54)c3c2)o1,7,-0.83
C[C@H]1CN(C(=O)NCCc2ccccc2F)CC[C@]1(O)C1CC1,-11,1.93
COC(=O)CC1C(=O)NC2CCCCC2N1C(=O)Nc1ccc(Cl)c(Cl)c1 (stereo not given),-8,1
O=C(c1cnccn1)N1CCC(Cc2nc(C3CCOCC3)no2)CC1,-8,1.03
O=C(Nc1cccc(Cl)c1)c1c(-c2ccc(C(F)(F)F)cc2)noc1N1CCCCC1,2,-0.39
CS(=O)(=O)C[C@H]1CCCN1C(=O)c1cc2c(o1)CCCC2,-19,2.16
CCCC(CCC)C(=O)Nc1ccc(Br)cc1F,-3,0.63

Compound,% Inhibition [%],Z score
O=S(=O)(c1ccc(Br)cc1)n1ccc(C2CC2)n1,34,-0.74
COc1cc(C(=O)N2CC(NC(=O)C3CCC3)C2)ccc1F,-3,0.54
COC1(CO)CCN(c2nnnn2CCc2cccc(C)c2)CC1,-11,1.5
O=C(Cn1ccc2ccccc21)N1CC[C@H](Oc2cnccn2)C1,0,0.03
CN(Cc1nnc2c(=O)n(C)ccn12)c1nc(C(F)(F)F)cs1,3,-0.57
CCc1ccc([C@H]2C[C@@H](c3ccc(Br)cc3)Nc3nnnn32)cc1,3,-0.35
O=C(c1cnccn1)N(Cc1ccc(Cl)cc1)c1ccccc1Cl,-8,1.11
CC[C@H](NCc1nccs1)c1cccc(S(N)(=O)=O)c1,-5,0.62
C=CCC[C@H](O)CN(Cc1c(-c2ccccc2)nn(C)c1Oc1ccc(Cl)cc1)C1CC1,8,-0.98
COc1ccccc1N1CCN(C(=O)c2cc3n(n2)CCN(Cc2cccc(F)c2)C3=O)CC1,4,-0.59
Cc1cccc2c(NCc3ccccc3F)nc(CNC(=O)Cc3cccnc3)nc12,-7,0.87
O=C1c2ccccc2C(=O)N1Cc1nc2cccnc2n1Cc1ccc(F)cc1,6,-1.17
Cc1ccnc2ccc(C(=O)N3CC[C@]4(CNC(=O)C4)C3)cc12,-1,0.12
Cc1ccc(CN2CCN(Cc3ccc(C)o3)[C@@H](CCO)C2)o1,-17,1.49
O=C(c1cc(Cl)ccc1F)N1CC[C@@H]2OCc3cnnn3[C@H]2C1,4,-0.58
O=C(O)c1c(NC(=O)C(c2ccccc2)c2ccccc2)sc2c1CCCC2,-15,2.36
O=C(Cn1ccn2nc(-c3ccc(F)cc3)c(CO)c2c1=O)NC1CCCCC1,0,0.02
CCN1c2cc(C(=O)Nc3cc(F)cc(F)c3)ccc2C(=O)N2CCCCC[C@H]21,-7,1.2
Cc1ncnc2c1CCC(=O)N2CCCN1CCOCC1,-8,1.11
COc1ccccc1[C@@H](NC(=O)c1cnn(C(C)C)c1)c1ccco1,3,-0.57
Cn1nc(C(=O)N(CCc2ccccc2)Cc2ccco2)ccc1=O,-3,0.53
CN(C)Cc1ccc([C@@H]2CCCN2C(=O)c2scc3c2CCCC3)cc1,-2,0.35

Compound,% Inhibition [%],Z score
CCc1cccc(OCCN2CCO[C@H](C)[C@H]2C(N)=O)c1,-14,2.42
CC(C)(C)C(O)CC(CO)NCc1cccs1 (stereo not given),-11,1.15
NS(=O)(=O)Cc1ccc(OC(F)(F)F)cc1,-4,0.52
O=C(c1cccs1)N1CCC2(CC1)C[C@@H](N1CCOCC1)CCO2,-9,1.21
CCOc1ccccc1CN1C(=O)c2cc(-c3ccccc3)nn2C[C@@]1(C)C(=O)NCc1ccccc1,1,-0.09
Cc1cc2c(cc1S(=O)(=O)N1CCN(C(=O)c3ccc(F)c(Cl)c3)CC1)O[C@@H](C)C(=O)N2,1,-0.05
Cc1n[nH]c(C)c1CN(C)CCC(=O)NC(C)(C)C,3,-0.43
c1cnn(CCN2CCOC3(CCCCCC3)C2)c1,-9,0.85
Cc1cc(=O)c(C(=O)NCCC[C@H]2CCOC2)c(C)[nH]1,3,-0.43
CCOc1ccccc1CN(Cc1c(C)nn(C(C)(C)C)c1C)C1CC1,4,-0.72
Cc1nc(C(=O)N(c2cccc(C(F)(F)F)c2)[C@@H](C)C2CC2)cs1,6,-1.01
CN(Cc1ccsc1)C(=O)c1cc2ccccc2[nH]1,58,-6.32
COCC1(F)CCN(Cc2c(-c3ccc(OC)cc3)nc3cc(C)ccn23)CC1,-8,1.12
CCC(C(=O)N1C2CCCC1COC2)c1ccccc1 (stereo not given),-13,2.43
CNc1cc(-c2nc3c(c(NC)n2)CCC3)c2cc[nH]c2n1,-2,0.29
O=C(NCCCN1CCCC1=O)c1ccoc1,-3,0.37
CCCOc1cc(N2CCC(O)CC2)ccc1NC(=O)[C@@H](C)C1CC1,-5,0.59
OCc1cccc(CNCc2c[nH]nc2-c2cccnc2)c1,-4,0.34
COC[C@@H]1CCC[C@@H]1NC(=O)c1cnc(COc2ccccc2)nc1O,-15,2.7
COC(C)(C)c1noc(-c2cccc3cc[nH]c23)n1,12,-1.44
CCc1ocnc1C(=O)N1CC[C@@H]2OCc3cccc(c3)Oc3ccc(cc3OC)CCC(=O)N(CCCOC)CC(=O)N[C@@H]2C1,-1,0.17
COc1ncccc1Cn1cnc(C)c(C)c1=O,4,-0.53

Compound,% Inhibition [%],Z score
CC[C@@H](Cn1ccnc1)Nc1ccc2ccccc2n1,-8,0.88
O=c1[nH]cc(C(F)(F)F)cc1Br,-1,0.19
COc1ccc(CN2C(C)COCC2C)cc1OCc1cccnc1 (stereo not given),6,-0.71
COC(=O)c1cc(NC(=O)Nc2cc(C)n[nH]2)cc(Cl)c1F,-3,0.37
C[C@@H](NC(=O)c1ccncc1Br)c1cc2ccccc2o1,3,-0.62
Cc1cccc2[nH]cc(CCNC(=O)C(=O)Nc3cnn(CC(=O)N(C)C)c3)c12,-8,1.31
C[C@@H]1CN(Cc2cncc(F)c2)C[C@H](C)N1Cc1cncc(F)c1,-7,1.16
COc1cc(NCCCc2nnc3ccccn23)nc(N)n1,3,-0.58
CCN(CC)CCNC(=O)CC1CCN(C(=O)c2ccc3nc(-c4ccccc4)oc3c2)CC1,-22,2.62
Cc1noc(C)c1C(=O)NCc1nnc(N)s1,-10,1.89
CCn1c(-c2cc(NC(=O)Cc3cccc(Cl)c3)[nH]n2)cc2ccc(OC)cc21,6,-0.89
Cc1noc(C)c1S(=O)(=O)N[C@@H](C)C(=O)NCCc1cnc(C2CC2)nc1,-11,1.61
CC(=O)N[C@@H](Cc1ccccc1F)C(=O)N1CCN(Cc2cccc(-c3noc(-c4cccc(C(F)(F)F)c4)n3)c2)CC1,-7,0.7
CC(CC(=O)NC(C(N)=O)C(C)C)c1ccccc1Br (stereo not given),25,-2.8
Cc1ccc(Cc2nnn(CC(O)CN3CC(C)OC(C)C3)n2)cc1 (stereo not given),-3,0.36
CN(CCc1ccccn1)Cc1cccs1,1,-0.19
Cc1cc(C(=O)Nc2cccc(CCN(C)C3CC3)c2)nc2nc(O)[nH]c(=O)c12,-11,1.74
O=C(Nc1cc(C(F)(F)F)ccc1Cl)C1CCC(N2C(=O)c3ccccc3C2=O)CC1 (stereo not given),8,-0.99
COc1cccc(NS(=O)(=O)c2ccc(-c3ccno3)o2)c1,-3,0.53

# From ChEMBL document CHEMBL4888484, “Replenishing the malaria drug discovery pipeline: Screening and hit evaluation of the MMV Hit Generation Library 1 (HGL1) against asexual blood stage Plasmodium falciparum ,using a nano luciferase reporter read-out” (2022)
